{
  "source": "PubChem BioAssay AID2101",
  "about": "(National Center for Advancing Translational Sciences (NCATS), 2009)",
  "note": "Values joined by “and” are separate entries in the source; they are usually repeats but may differ in a detail not shown here. Identical values can stand only once. In all, about 330,000 compounds went through this assay and about 300 (0.091%) were called active. Inconclusive results, whose numbers are uncertain, are shown with a selection of clear calls. Calls come from the whole dose curve; as a rule, active = well fitted inhibition curve with a large enough effect; inconclusive = small, poorly fitted or top-dose-only effect, or effect the other way, or another doubt; inactive = no such curve, though single readings can be large or run the other way. No potency is given beside an inconclusive call; the fits are too rough. Potency is the fitted concentration of half-maximal effect.",
  "data": [
    {"molecular_target": "Lysosomal acid glucosylceramidase (Homo sapiens) (UniProt P04062)", "assay": "qHTS Assay for Inhibitors and Activators of N370S glucocerebrosidase as a Potential Chaperone Treatment of Gaucher Disease;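 for activity change, negative = inhibition: 0% = full enzyme activity and -100% = no enzyme basal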", "conditions": "N370S GC spleen homogenate, 4MU-glucoside fluorescence; activity change, negative = inhibition: at 59.4 µM (top of the series) unless noted", "values": [
      {"smiles": "COc1ccc(-c2cc(OC)c3ccccc3n2)cc1", "Potency": "inconclusive [inhibitor, partial curve, poor fit]"},
      {"smiles": "CC(C)(C)n1cnc(C(N)=O)c1N", "Potency": "inconclusive [inhibitor, partial curve, poor fit]"},
      {"smiles": "CCCCSc1nc(NCc2ccco2)c2c3c(sc2n1)COC(C)(C)C3", "Potency": "inconclusive [activator, partial curve]"},
      {"smiles": "O=C1CCN(CCc2ccccc2)CCN1[C@H](CSc1ccc(Br)cc1)c1ccccc1", "Potency": "inconclusive [inhibitor, single point]"},
      {"smiles": "N#Cc1ccccc1-c1cncnc1NCc1cccnc1", "Potency": "inconclusive [activator, partial curve]"},
      {"smiles": "O=c1c2ccccc2nnn1CSc1nnc(COc2ccc(Cl)cc2)n1Cc1ccco1", "Potency": "inconclusive [inhibitor, partial curve, poor fit]"},
      {"smiles": "CCOc1ccc(S(=O)(=O)N(CC(=O)N/N=C/c2cccs2)c2ccc(C)cc2)cc1", "Potency": "inconclusive [activator, single point]"},
      {"smiles": "CN1CCN(Cc2c(C#N)c3ccccc3n2C)CC1", "Potency": "inconclusive [activator, partial curve, poor fit]"},
      {"smiles": "Cc1ccc(OCCNC(=O)c2ccccc2SCC(=O)N2CCCC2)cc1", "Potency": "inconclusive [activator, single point]"},
      {"smiles": "O=C(COC(=O)C1C2CC3OC(=O)C1C3C2)Nc1cccc(Cl)c1", "note": "(stereo not drawn)", "Potency": "inconclusive [activator, single point]"},
      {"smiles": "Cc1ccc(CN2CCSc3ccc(C(=O)NCCCN4CCOCC4)cc32)cc1", "Potency": "inconclusive [activator, single point]"},
      {"smiles": "Cc1cc(C)n(-c2nncc(-c3ccccc3)n2)n1", "Potency": "inconclusive [activator, full curve]"},
      {"smiles": "CC(C)Oc1nc(-c2ccccc2O)nc2ccccc12", "Potency": "inconclusive [activator, partial curve]"},
      {"smiles": "C=C1C2c3ccccc3C(CC2(C)O[Si](C)(C)C)N1C(=O)OC", "note": "(stereo not drawn)", "activity change, negative = inhibition": "inactive: 0.722% [at 12.8 µM]"},
      {"smiles": "NC(=O)CN(c1ccc(Oc2ccccc2)cc1)S(=O)(=O)c1ccccc1", "Potency": "inconclusive [inhibitor, partial curve, poor fit]"},
      {"smiles": "CCOc1ccccc1NC(=O)C(=O)N/N=C/c1ccc([N+](=O)[O-])cc1", "Potency": "inconclusive [inhibitor, full curve, poor fit]"},
      {"smiles": "COC(=O)c1c(NC(=O)CN2CCC3(O)CCCCC3C2c2ccc(F)cc2)sc(C)c1C", "note": "(stereo not drawn)", "Potency": "inconclusive [activator, single point]"},
      {"smiles": "CN(C)CCOCCP(=O)(c1ccccc1)c1ccccc1", "activity change, negative = inhibition": "inactive: 1.78%"},
      {"smiles": "O=C(Nc1sc2c(c1C(=O)NCc1ccco1)CCCC2)c1ccc2c(c1)OCO2", "Potency": "inconclusive [activator, partial curve]"},
      {"smiles": "COc1ccc(N2CCN(S(=O)(=O)c3ccc4c(c3)NC(=O)CC(=O)N4)CC2)cc1", "Potency": "inconclusive [inhibitor, single point]"},
      {"smiles": "O=C(Nc1ccc2oc(-c3ccccc3F)nc2c1)c1ncn[nH]1", "activity change, negative = inhibition": "inconclusive: 23.9% [activator]"},
      {"smiles": "COc1ccc(N(CC(=O)N/N=C/c2cc(OC)ccc2OC)S(=O)(=O)c2ccccc2)cc1", "Potency": "inconclusive [activator, single point]"},
      {"smiles": "O=C(NNc1c(Cl)cccc1Cl)c1c(F)cccc1Cl", "Potency": "inconclusive [activator, partial curve]"},
      {"smiles": "CCOc1ccc(CCNC(=O)CCNC(=O)c2ccc(Br)cc2)cc1OCC", "Potency": "inconclusive [inhibitor, full curve, poor fit]"},
      {"smiles": "Cc1c(-c2ccc(O)cc2)nn(-c2ccc(O)cc2)c1-c1ccc(OCCN2CCCCC2)cc1", "Potency": "inconclusive [inhibitor, single point]"},
      {"smiles": "COc1ccc(/C=N/NC(=O)c2ccc(Br)cc2)c(OC)c1", "Potency": "inconclusive [activator, partial curve]"},
      {"smiles": "Cc1ccc(Cn2ncc3c(N4CCOCC4)ncnc32)cc1", "Potency": "inconclusive [inhibitor, full curve, poor fit]"},
      {"smiles": "Cc1nn2c(-c3ccccc3)nnc2c2ccccc12", "Potency": "inconclusive [activator, partial curve]"},
      {"smiles": "Clc1ccc2nc(N3CCNCC3)nc(-c3ccccc3)c2c1", "Potency": "inconclusive [inhibitor, single point]"},
      {"smiles": "CCOc1cc(/C=N/NC(=O)CN2CCCCC2)ccc1OCc1cccc(Cl)c1", "Potency": "inconclusive [inhibitor, single point]"},
      {"smiles": "N#Cc1c2n(c3c(=O)n(Cc4ccccc4Cl)cnc13)CCCCC2", "Potency": "inconclusive [activator, partial curve]"},
      {"smiles": "N=C1/C(=C\\c2coc3ccccc3c2=O)C(=O)N=C2SC(c3ccncc3)=NN12", "activity change, negative = inhibition": "inactive: -21.4%"},
      {"smiles": "Fc1ccc(Nc2nc(NCc3ccco3)c3ccccc3n2)cc1", "Potency": "inconclusive [inhibitor, partial curve]"},
      {"smiles": "COC(=O)c1sccc1NC(=O)c1cc2c(s1)CCCC2", "Potency": "inconclusive [activator, partial curve, poor fit]"},
      {"smiles": "CCOC(=O)c1oc2nc(C(C)C)c3c(c2c1N)CCC3", "Potency": "inconclusive [activator, partial curve]"},
      {"smiles": "Cc1ccc(C2=Nc3ccccc3SC(c3cccc([N+](=O)[O-])c3)C2)cc1", "note": "(stereo not drawn)", "Potency": "inconclusive [activator, partial curve]"},
      {"smiles": "c1ccc(-c2ccc(-c3csnn3)cc2)cc1", "activity change, negative = inhibition": "inactive: 7%"},
      {"smiles": "CCN(CC)C(=O)Cn1c(C)c(/C=C/c2cc[n+](C)cc2)c2ccccc21", "Potency": "inconclusive [inhibitor, partial curve]"},
      {"smiles": "Cc1cc2c(nc1C)CCCN2C[C@H](O)CN1CCCc2nc(-c3ccc(Br)cc3)ccc21", "activity change, negative = inhibition": "inactive: -15.5% [at 12.8 µM] and inactive: -5.24% [at 12.8 µM]"},
      {"smiles": "Cc1cccc(N2CCN(C(=O)c3ccc(CS(=O)Cc4cccc(Cl)c4)o3)CC2)c1C", "note": "(stereo not drawn)", "activity change, negative = inhibition": "inactive: -7.68%"},
      {"smiles": "CCOc1ccccc1NC(=O)Nc1ccccn1", "Potency": "inconclusive [activator, full curve]"},
      {"smiles": "COc1ccc(C2=Nn3c(nnc3-c3cc(OC)cc(OC)c3)SC2)cc1", "activity change, negative = inhibition": "inactive: 1.61%"},
      {"smiles": "COc1ccc(NC(=O)CSCc2cc(=O)n3nc(C4CC4)sc3n2)cc1", "Potency": "inconclusive [inhibitor, single point]"},
      {"smiles": "COCCn1c(SCC(=O)Nc2ccc(Cl)cn2)nc2ccccc21", "Potency": "inconclusive [activator, partial curve]"},
      {"smiles": "CCCN(CC(=O)Nc1ccccc1C)C(=O)COC(=O)CSc1ccc([N+](=O)[O-])cc1", "activity change, negative = inhibition": "inactive: -18.2%"},
      {"smiles": "CCc1ccc(/C=C2\\SC(=S)N(CCC(=O)N3CCN(C)CC3)C2=O)cc1", "Potency": "inconclusive [inhibitor, partial curve, poor fit]"},
      {"smiles": "CC(C)(C)c1ccc(NC(=O)C2CCCN(c3cnccn3)C2)cc1", "note": "(stereo not drawn)", "Potency": "inconclusive [activator, single point]"},
      {"smiles": "O=C(O)CCCC(=O)N1CCc2cc(S(=O)(=O)N3CCc4ccccc43)ccc21", "Potency": "inconclusive [activator, partial curve]"},
      {"smiles": "CC1(C)Cc2c(c(N3CCCC3)nc3sc(C(=O)Nc4ccccc4)c(N)c23)CO1", "Potency": "inconclusive [activator, partial curve]"},
      {"smiles": "Cc1cc(-c2ccc(C)c(S(=O)(=O)N3CCN(c4ccccn4)CC3)c2)on1", "activity change, negative = inhibition": "inactive: -7.53%"},
      {"smiles": "COc1ccc(C)cc1NC(=O)CSc1ccc(-c2ccco2)nn1", "activity change, negative = inhibition": "inactive: -12.6%"},
      {"smiles": "Cc1ccc2[nH]c3c(c2c1)CN(C(=O)CN1CCN(Cc2ccc4c(c2)OCO4)CC1)CC3", "Potency": "inconclusive [inhibitor, full curve, poor fit]"},
      {"smiles": "CC(C)(C)n1nnnc1C(c1ccc(C(F)(F)F)cc1)N(Cc1ccccc1)Cc1ccco1", "note": "(stereo not drawn)", "activity change, negative = inhibition": "inconclusive: 30.9% [activator]"},
      {"smiles": "COc1cc(/C=C\\C(=O)NCc2ccc3c(c2)cc(C)n3C)cc(OC)c1OC", "Potency": "inconclusive [inhibitor, single point]"},
      {"smiles": "O=C(NCc1ccco1)c1ccc2c(c1)C(=O)c1ccccc1-2", "activity change, negative = inhibition": "inactive: 0.797%"},
      {"smiles": "Cc1nc(NCc2ccccc2)c2nc(-c3ccccc3)n(CCN3CCOCC3)c2n1", "Potency": "inconclusive [inhibitor, partial curve]"},
      {"smiles": "CCOCCCNC(=O)c1c(N)n(-c2ccc3c(c2)OCO3)c2nc3ccccc3nc12", "Potency": "inconclusive [activator, single point]"},
      {"smiles": "CC(C)c1cc(NCC2CCCO2)n2c(nc3ccccc32)c1C#N", "note": "(stereo not drawn)", "Potency": "inconclusive [activator, partial curve]"},
      {"smiles": "CC(C)(C)c1nc2c(C#N)c(-c3ccc(Cl)cc3)ccn2n1", "Potency": "inconclusive [activator, partial curve]"},
      {"smiles": "CCCC/C=C/C(NC(=O)c1ccco1)c1ccccc1", "note": "(stereo not drawn)", "Potency": "inconclusive [activator, partial curve]"},
      {"smiles": "CCN1CCN(c2cc(N3CCc4ccccc4C3)c(F)cc2[N+](=O)[O-])CC1", "Potency": "inconclusive [inhibitor, single point]"},
      {"smiles": "CCOC(=O)c1c(C)[nH]c(C)c1C(=O)CSc1nc2ccccc2c(=O)n1-c1ccc(F)cc1", "Potency": "inconclusive [activator, partial curve, poor fit]"},
      {"smiles": "CCNC(=S)N(CCCO)Cc1cc2cc3c(cc2[nH]c1=O)OCCO3", "Potency": "inconclusive [activator, single point]"}
    ]}
  ]
}
